# Experimental data published in PubChem BioAssay AID2676 (National Center for Advancing Translational Sciences (NCATS), 2010).
# Among all 370,000 compounds or so, about 1,100 (0.3%) were called active. Inconclusive means that the source gave no clear call. Such entries were picked first, then a sample of the others. The call rests on the fitted dose curve; in most records, active means well fitted activation curve with a large enough effect; inconclusive means small, poorly fitted or top-dose-only effect; inactive means flat fitted curve, though single readings scatter. Potencies of inconclusive entries are doubtful fits and often do not repeat.
# Biological target: Relaxin receptor 1 (Homo sapiens) (UniProt Q9HBX9)
# Experiment: qHTS Assay for Agonists of the Relaxin Receptor RXFP1; further: nearly all actives have a fitted effect of over 60% in size
# Conditions: HEK293T-RXFP1 cAMP TR-FRET, 30 min; series mostly up to 57.5 µM; activation: at the top concentration
# In short: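 HEK293 cells stably expressing RXFP1, treated 30 min at 37C with compounds plus PDE4 inhibitor Ro 20174; cAMP measured by HTRF TR-FRET. Normalized to buffer and 29 nM porcine relaxin; EC50 by Hill fit.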
# On the % scale 0 is the no-effect control and ±100 the full control effect; potency means the concentration at half of the fitted maximal effect; tags describe the fitted curve by direction and shape.
# Sequence of UniProt Q9HBX9 (Q9HBX9 whole entry, looked up): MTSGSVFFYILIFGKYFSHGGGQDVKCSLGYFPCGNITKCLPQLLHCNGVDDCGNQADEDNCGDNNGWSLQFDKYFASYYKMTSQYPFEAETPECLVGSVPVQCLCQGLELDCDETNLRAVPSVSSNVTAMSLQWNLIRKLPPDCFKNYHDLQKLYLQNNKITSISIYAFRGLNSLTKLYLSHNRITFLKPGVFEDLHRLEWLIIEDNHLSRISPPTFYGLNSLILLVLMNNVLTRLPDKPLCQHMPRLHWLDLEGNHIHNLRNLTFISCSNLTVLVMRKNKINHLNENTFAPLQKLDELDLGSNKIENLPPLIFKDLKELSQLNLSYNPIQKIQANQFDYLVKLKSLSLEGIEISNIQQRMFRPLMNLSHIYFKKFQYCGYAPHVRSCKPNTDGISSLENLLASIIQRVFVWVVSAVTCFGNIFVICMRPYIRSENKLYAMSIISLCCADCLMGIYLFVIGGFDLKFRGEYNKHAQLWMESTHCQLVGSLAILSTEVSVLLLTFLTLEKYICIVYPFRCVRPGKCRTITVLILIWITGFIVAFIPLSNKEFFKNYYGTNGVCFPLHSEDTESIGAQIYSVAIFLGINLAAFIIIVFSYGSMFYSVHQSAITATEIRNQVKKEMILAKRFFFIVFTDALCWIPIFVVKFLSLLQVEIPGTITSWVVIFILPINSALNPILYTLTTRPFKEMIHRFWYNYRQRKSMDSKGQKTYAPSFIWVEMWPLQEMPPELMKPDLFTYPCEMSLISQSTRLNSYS
SMILES,Potency,activation
COCCCn1c(=N)c(C(=O)NC2CCCCC2)cc2c(=O)n3ccccc3nc21,"inconclusive: 31.6 µM [activator, partial curve]",
Cn1c(=S)[nH]c2scc(-c3cccs3)c2c1=O,"inconclusive: 14.1 µM [activator, partial curve]",
COc1ccc(NC(=O)CSc2nc3n[nH]c(C)c3c(=N)n2-c2ccc(Cl)c(C)c2)cc1OC,"inconclusive: 39.8 µM [activator, single point]",
Cc1cccn2c(=O)c3cc(C(=O)NCc4ccc(F)cc4)c(=N)n(CC4CCCO4)c3nc12 (configuration not stated),"inconclusive: 28.2 µM [activator, partial curve]",
COc1cc(NC(=O)C(NC(=O)C2CCC(C)CC2)C(C)C)cc(OC)c1OC (configuration not stated),,inactive: 3.23%
O=c1[nH]c2ccccc2n2c(=S)[nH]nc12,"inconclusive: 14.1 µM [activator, partial curve]",
CCc1nn(CC(=O)Nc2c(C)cc(C)cc2C)c(=O)c2cc3sccc3n12,"inconclusive: 39.8 µM [activator, single point]",
COc1ccc(S(=O)(=O)c2cn(CC(=O)Nc3ccccc3)c3ccc(Cl)cc3c2=O)cc1,"inconclusive: 39.8 µM [activator, single point]",
CCOC(=O)c1sc(NC(=O)c2ccc(OC)cc2)nc1C,"inconclusive: 39.8 µM [activator, single point]",
N#Cc1ccccc1Cn1c(=O)n(CCCC(=O)NCc2ccc3c(c2)OCO3)c(=O)c2sccc21,"inconclusive: 35.5 µM [activator, single point]",
CCC1(C)Cc2c(sc3nc(SC)[nH]c(=S)c23)CO1 (configuration not stated),active: 25.1 µM,
Cc1cc(C)nc(NS(=O)(=O)c2ccc(NC(=O)CSc3nc(-c4ccccc4)c(C#N)c(=O)[nH]3)cc2)n1,active: 17.8 µM,
CC1=C(C#N)C(NC(=O)c2ccccc2Cl)(C(F)(F)F)C(=O)N1 (configuration not stated),"inconclusive: 28.2 µM [activator, single point]",
CCc1ccc(NC(=O)c2sc3nc(C)c(Cl)c(C)c3c2NC(=O)c2ccccc2OC)cc1,"inconclusive: 5.01 µM [activator, single point]",
CCC(C)(C(=O)NC1CCCCC1)N(C(=O)CNC(C)=O)c1c(C)n(C)n(-c2ccccc2)c1=O (configuration not stated),,inactive: -0.967%
Cc1ccc(NC(=O)CSc2ccc(-c3cccs3)nn2)cc1Cl,"inconclusive: 20 µM [activator, partial curve]",
Cn1c2ccccc2c(=O)c2ccc(C#Cc3ccccn3)cc21,"inconclusive: 39.8 µM [activator, single point]",
